# The supplement of paper PMC11417369
# ± gives the standard deviation of the averaged measurements. The list shows a part of the results.
# System: PfAP2-EXP AP2 domain (GST-tagged)
# Test: gcPBM binding intensity (ln(normalized median fluorescence intensity)); higher = stronger DNA binding
# Summary of the method: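 GST-fused DNA-binding domains of P. falciparum, expressed in E. coli, were applied at about 25 μg on average for 1 h to an Agilent 4 × 180k array of primer-extended double-stranded 36-bp intergenic genomic probes and negative controls. Binding intensity is the highest Masliner-normalised natural-log median intensity across replicate spots of either probe orientation, measured with Alexa488 anti-GST antibody and a 488 nm scan.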
row,Sequence,gcPBM binding intensity (ln)
1,ATATATATTATTGAATGTACATAATTATTTAATAGT [XGTACX_site4971],8.76 ± 0.38
2,GTATTTAGATGATTAACACACATATGTGTATTAATA [CACACA_site6733],8.37 ± 0.27
3,TATTCACTGATATGTTGTACATAAAAAAAATTAAAT [XGTACX_site6128],8.5 ± 0.33
4,AATTATATTGGTTGTAGTACTAAAAGTAAGTTAATG [XGTACX_site33],8.69 ± 0.35
5,TTTTTTATATTGATATTTATTAAATATGAAATGTTA [GTGCAC_negctrl_site405],7.97 ± 0.44
6,TGAAAAAAGAAAAATACACACATATAATATAATATA [CACACA_site2255],8.48 ± 0.49
7,AATAAAATATAAGGGGGTACGGAGAAAGGATACTAT [XGTACX_site7733],9.17 ± 0.38
8,TTATATAAGATATTTCGTACACATTCAAAAATTATG [XGTACX_site7375],8.35 ± 0.37
9,AAAAAAAAAAAAAAAAGTACATATATTATATATATA [XGTACX_site2983],8.9 ± 0.099
10,CATACACCCCAACACACACACACACCCATATATAAT [CACACA_site8097],8.82 ± 0.66
11,GTGCAATATTTATTTTGTACATATTTATCAATAAAC [XGTACX_site8297],8.36 ± 0.2
12,TTATATTTTTACAAGAGTACATATATATATATATAT [XGTACX_site5383],10.2 ± 0.31
13,TCAAACCAGTTGATGTGTACACATATAGTAATAATT [XGTACX_site6014],8.79 ± 0.38
14,TTTATTTGATGAACATGTACAAAAAAACAAAGAACA [XGTACX_site823],8.83 ± 0.31
15,ATTAAATATATTAAATGTACATAATATATATATATA [XGTACX_site5032],10 ± 0.23
16,ACATCGATTTATATTCTGCACTGAAGAAACTACAAC [GTGCAC_site9967],8.78 ± 0.13
17,ATAAAAATAAAATGGACACACATATATACCTATTTG [CACACA_site5761],8.5 ± 0.34
18,TGATATTTTATTATTAAAATATATACATATATATAT [CACACA_negctrl_site1456],9.455 ± 0.007
19,AAGAAAAAAAAAAAAAAAGATACTTTTTTAAAACTA [TGCATGCA_negctrl_site13],8.11 ± 0.73

row,Sequence,gcPBM binding intensity (ln)
1,TTGCACAGATTAATCAAAAATTTTAAACCAAATATA [XGTACX_negctrl_site38],8.56 ± 0.45
2,TATTTACACAAAATAAAATATATTATATATATATAT [TGCATGCA_negctrl_site381],9.7 ± 0.35
3,AGAATAGAATAAAAAACACACATTTACAACATTATT [CACACA_site3894],8.54 ± 0.52
4,TATATGGAGAGATATGCACACTGTATGAATGCCCCC [CACACA_site8853],10.3 ± 0.33
5,TATTTATACATAGGTGGTACTACTTTAAACAAAAAA [XGTACX_site5062],8.68 ± 0.4
6,AAATAAATAATATTCACACATAAAAAAAATGGAGTT [CACACA_site4525],8.44 ± 0.45
7,TTTATTCCAGTATTCACACACGAATAACCACATAAC [CACACA_site5104],8.68 ± 0.25
8,TGTATTTATAGCAATACACACATAACAATAAATATA [CACACA_site3328],8.27 ± 0.071
9,TATATAAGAGGAAAAAGTACAGAAAAACAAAGAGAA [XGTACX_site2926],9.29 ± 0.45
10,CTATACATATTATATAGTACTTTATTATTATGACTA [XGTACX_site1382],8.45 ± 0.36
11,ATAATTCTTTATTATAGTACACAAACTTTCAAAACA [XGTACX_site3597],8.45 ± 0.27
12,AAAAAAGAGGGATACACACAAACATATATATATATA [CACACA_site2243],10.1 ± 0.33
13,AAGAAAATATAAATATGTACTTAATAATTTATTTAT [XGTACX_site8100],8.16 ± 0.37
14,TTTATATCTTATTATAGGAAAATGAATATTTTCTCT [TGCATGCA_negctrl_site478],8.19 ± 0.36
15,ACAAAACATATATTCTGTACATATATAATGGTGACT [XGTACX_site6796],8.67 ± 0.3
16,TATTAAAATAACATACGTACATAAGTATATAAAAAA [XGTACX_site1769],8.55 ± 0.21
17,AGGATACACGGACACACACACATATATATATATATA [CACACA_site4654],10.2 ± 0.28
18,AAAATAAAAAGAAATTGTACGTATAATAATATATTT [XGTACX_site7593],8.72 ± 0.47
19,TTTATTTTAAAATTTACACACAAAAGGATTTATAGA [CACACA_site2338],8.38 ± 0.45

row,Sequence,gcPBM binding intensity (ln)
1,TATATTAATTAACAGTGTACAAAAAAAAATAAAAAA [XGTACX_site3702],8.82 ± 0.42
2,TGTATAAATAAATGCGTACACACTAATAAAAAAAAA [CACACA_site858],8.59 ± 0.49
3,AAAAAAAATATGATGAGTACACAATAATACATGCAA [XGTACX_site6999],9.14 ± 0.16
4,CAACTTTTTGAAAATTGTACATGACATATATATATA [XGTACX_site260],10 ± 0.35
5,TTATGTAAATAATTTTGTACTTAAATTATTATATAA [XGTACX_site1491],8.08 ± 0.4
6,AATATCTAAAATGTGTGTACATAATATTTTTAATAT [XGTACX_site3831],8.3 ± 0.27
7,GTGGTTATATATTAAGTGCATATTATAATTTTAAAC,8.6 ± 0.085
8,ATAGATAAAAAATTATTTATTTAGAATTTTTATGTA [CACACA_negctrl_site400],7.91 ± 0.32
9,TGTCTTTATATATATTTATTTTTTAGTATTACATAA [CACACA_negctrl_site21],8.43 ± 0.27
10,ATGGAATATTTCATGATTTTTTTAATTTTTTTATTG [XGTACX_negctrl_site55],8.1 ± 0.53
11,TATCTTTTTTTTAATACACACAAATTTATGAAAGTA [CACACA_site7879],8.38 ± 0.33
12,ATTTTCATATTTTTATGTACATATTATAAGAATATA [XGTACX_site3691],8.61 ± 0.42
13,TTCGTTAAAAATAAATGTACATAAATAAACCTTATT [XGTACX_site621],8.39 ± 0.33
14,ATTTTAATAAACACTTACATGTTTTCCAAATTGTAT [CACACA_negctrl_site1807],8.41 ± 0.3
15,ATATTAAGAATGTATACATGCATATATATATAGTAC [TGCATGCA_site219],9.17 ± 0.42
16,TATTAATAAATATGTTTACACACGAAAATACATTTT [CACACA_site1012],8.45 ± 0.54
17,AAAGATTTAGAAAATGAACACACGAGCACCCACCGA [CACACA_site1017],9.21 ± 0.54
18,GAAAGAGAGATATATACACACATATTTATATTTTTA [CACACA_site7057],8.18 ± 0.48
